The list shows a part of the results.
System: S. aureus RN4220
Assay: growth inhibition call (relative growth <= 0.2)
Settings: 50 µM

Growth inhibition call, inactive:
CC1=CC2C(C(C)C)CCC(C)(O)C2CC1 (centres undefined)
COc1cccc(CNC(=O)C[C@@H]2CC[C@H]3[C@@H](COC[C@H](O)CN3S(=O)(=O)c3ccc(C)cc3)O2)c1
CNCc1nncn1C(C)C
CC[C@@]12O[C@H]3[C@@H](O)[C@H]4C[C@@H]3[C@@H]1[C@@H]4C(=O)N2C
CC1C2CCC3C4CC=C5CC(N(C)C)CCC5(C)C4CCC32CN1C (centres undefined)
COc1ccc(C#Cc2cnc3c(c2)C(=O)N([C@H](C)CO)C[C@@H](C)[C@H](CN(C)C(=O)CC2CC2)O3)cc1
COc1ccc(NC(=O)N(C)C[C@@H]2OCCCC[C@@H](C)Oc3ccc(NC(=O)NC4CCCCC4)cc3C(=O)N([C@H](C)CO)C[C@H]2C)cc1
C[C@]1(C(=O)NCCN2CCOCC2)c2ccccc2C(=O)N(Cc2cc(C(F)(F)F)cc(C(F)(F)F)c2)[C@H]1c1ccc(CO)cc1
C[C@@H]1CCCCO[C@H](CN(C)CC2CCCCC2)[C@H](C)CN([C@@H](C)CO)C(=O)c2cc(NC(=O)CCCCCC(=O)Nc3ccccc3N)ccc2O1
C[C@H](CO)N1C[C@H](C)[C@@H](CN(C)C(=O)Nc2ccc(C(F)(F)F)cc2)OCc2cnnn2CCCC1=O
Cc1ccc(S(=O)(=O)N(C)C[C@H]2Oc3ccc(NC(=O)C4CC4)cc3C(=O)N([C@H](C)CO)C[C@@H]2C)cc1
CC(C)NC(=O)N(C)C[C@@H]1Oc2ccc(NC(=O)C3CCCCC3)cc2C(=O)N([C@H](C)CO)C[C@H]1C
C[C@@H]1CN([C@@H](C)CO)C(=O)Cc2cc(NC(=O)CCN3CCOCC3)ccc2O[C@@H]1CN(C)Cc1ccc(C(=O)O)cc1
C[C@@H]1CN([C@@H](C)CO)C(=O)c2cccc(NC(=O)C3CCOCC3)c2O[C@H]1CN(C)S(=O)(=O)c1ccc(F)cc1
C[C@@H]1CN([C@H](C)CO)C(=O)Cc2cc(NC(=O)CCC(F)(F)F)ccc2O[C@@H]1CN(C)C(=O)Nc1ccc(C(F)(F)F)cc1
COc1ccc(NC(=O)Nc2ccc3c(c2)C(=O)N([C@H](C)CO)C[C@@H](C)[C@@H](CN(C)S(=O)(=O)c2ccc(Cl)cc2)OCCCC[C@H](C)O3)cc1
COc1cccc(S(=O)(=O)N2C[C@H](O)COC[C@H]3O[C@@H](CC(=O)N4CCN(C)CC4)CC[C@@H]32)c1
C[C@H]1CN([C@@H](C)CO)C(=O)Cc2cc(NC(=O)Nc3ccccc3)ccc2O[C@@H]1CN(C)C(=O)Nc1ccc(C(F)(F)F)cc1
C[C@@H]1CCCCO[C@H](CN(C)Cc2ccc(C(F)(F)F)cc2)[C@@H](C)CN([C@H](C)CO)C(=O)c2cc(NC(=O)c3ccccc3)ccc2O1
C[C@@H]1CN([C@@H](C)CO)C(=O)Cc2cc(NS(=O)(=O)c3cn(C)cn3)ccc2O[C@H]1CN(C)S(=O)(=O)c1cn(C)cn1
N[C@H]1CCCC[C@@H]1OCc1ccccc1
C[C@H]1CN([C@@H](C)CO)C(=O)Cc2cc(NC(=O)C3CCCCC3)ccc2O[C@H]1CN(C)Cc1ccc(-c2ccccc2)cc1
C#CCN([C@H](/C=C/C1CC1)[C@@H](O)Cc1ccccc1)[C@@H](Cc1ccc(-n2cc(CCC(=O)NO)nn2)cc1)C(=O)OC
CC(C)CC#Cc1ccc2c(c1)O[C@H](CN(C)C(=O)C1CCOCC1)[C@H](C)CN([C@@H](C)CO)S2(=O)=O
OCc1ccccc1OC1OC(CO)C(O)C(O)C1O (centres undefined)
NCCOc1ccccc1Cc1ccccc1
C=C(C)C1CC=C(C(=O)O)CC1 (centres undefined)
C[C@H]1CN([C@@H](C)CO)C(=O)Cc2cc(NS(=O)(=O)c3cccs3)ccc2O[C@H]1CN(C)S(=O)(=O)c1cccs1
CC(C)NC(=O)N(C)C[C@@H]1Oc2ccc(NC(=O)Cc3ccccc3)cc2C(=O)N([C@@H](C)CO)C[C@H]1C
